Measured values as given in PubChem BioAssay (NCATS).
Inconclusive means that the source gave no clear call. Such entries were picked first, then a sample of the others. Where the call is inconclusive, the potency comes from a doubtful curve fit. Activity calls are given as the source filed them. Calls come from the whole dose curve; as a rule, active = well fitted curve in the direction sought with a large enough effect; inconclusive = small, poorly fitted or top-dose-only effect, or another doubt; inactive = no such curve, though single readings can be large; an effect the other way counts as inactive or inconclusive.

Assay: BET inhibitor-based combinations targeting novel dependencies in MECOM-rearranged (r) AML: UCSD-AML1 cell line (AID 2202235); note: nearly all actives have a fitted effect of over 40% in size
Settings: UCSD-AML1 AML cells viability, CellTiter-Glo, 48 h; series mostly up to 46 µM
In short: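 Seeding density was 500 cells/well, and drug exposure lasted 48 hr under standard culture conditions. Read-out used CellTiter-Glo reagent with a 15 min room-temperature incubation before luminescence measurement; AUC and Z-AUC summarize the normalized responses.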
Potency is the fitted concentration of half-maximal effect; tags give direction and shape of the fitted curve.

SMILES | Potency
CC(=O)c1cnc2ccc(-c3cc(Cl)c(O)c(Cl)c3)nc2c1NC1CCC(CN(C)C)CC1 (configuration not stated) | active: 0.027 µM
COC(=O)Nc1nc2ccc(C(=O)c3cccs3)cc2[nH]1 | active: 0.0833 µM
NC(CO)(CO)CCc1ccc(Sc2cccc(OCc3ccccc3)c2)cc1Cl | inconclusive: 11.8 µM [inhibitor, single point]
COc1cc(-c2nn(C3CCC(N4CCN(C(C)=O)CC4)CC3)c3ncnc(N)c23)ccc1NC(=O)c1cc2ccccc2n1C (configuration not stated) | inconclusive: 10.5 µM [inhibitor, single point]
C1=C/COCc2cc(ccc2OCCN2CCCC2)Nc2nccc(n2)-c2cccc(c2)COC/1 | active: 1.18 µM
CN(C)CCCN=c1c2ccccc2n(C)c2[nH]c(=O)n(C)c(=O)c12 | active: 26.3 µM
COc1ccc(OC)c(-c2nnc3ccc(-c4ccc(OC)c(O[C@@H]5CCOC5)c4)nn23)c1 | inconclusive: 2.95 µM [inhibitor, full curve]
CCN1CCN(Cc2ccc(Nc3ncc(F)c(-c4cc(F)c5nc(C)n(C(C)C)c5c4)n3)nc2)CC1 | active: 0.662 µM
CC(C)(C)C(=O)OCOP(=O)(COCCn1cnc2c(N)ncnc21)OCOC(=O)C(C)(C)C | active: 1.86 µM
Cn1c(NC[C@@H](N)Cc2ccccc2)nc(-c2ccncc2)c(-c2ccc3ccccc3c2)c1=O | inconclusive: 26.3 µM [inhibitor, partial curve, poor fit]
CCN(CC)CCNC(=O)c1ccc2nc(-c3ccccc3)c(-c3ccc(CN4CCC(n5c(=O)[nH]c6ccccc65)CC4)cc3)nc2c1 | inconclusive: 11.8 µM [inhibitor, single point]

Assay: BET inhibitor-based combinations targeting novel dependencies in MECOM-rearranged (r) AML: AML-191 cell line (AID 2202236; note: nearly all actives have a fitted effect of over 35% in size)
Settings: AML-191 viability, CellTiter-Glo luminescence, 48 h; series mostly up to 46 µM
In short: (§1)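 Readout: CellTiter-Glo luminescence. Exposure: 48 h, 11 concentrations, 500 cells/well. Metric: AUC and within-line Z-AUC after DMSO/empty-well normalization.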

SMILES | Potency
C=CC(=O)Nc1cc2c(Nc3ccc(F)c(Cl)c3)ncnc2cc1OCCCN1CCOCC1 | inconclusive: 11.8 µM [inhibitor, partial curve, poor fit]
Cc1c(C(=O)N2CCOc3ccc(-c4ccc(N)nc4)cc3C2)ccc(S(C)(=O)=O)c1F | active: 1.86 µM
COC(=O)Nc1nc2ccc(C(=O)c3ccccc3)cc2[nH]1 | active: 0.263 µM
Nc1nc(-c2nn(Cc3ccccc3F)c3ncccc23)nc(N)c1N1CCOCC1 | inactive
CN(Cc1cc(Br)cc(Br)c1N)C1CCCCC1 | inactive
COc1cc(-c2nn(C3CCC(N4CCN(C(C)=O)CC4)CC3)c3ncnc(N)c23)ccc1NC(=O)c1cc2ccccc2n1C (configuration not stated) | active: 5.9 µM
COc1cc(Oc2ccnc3cc(OC)c(OC)cc23)ccc1NC(=O)NC(C)c1nccs1 (configuration not stated) | inconclusive: 10.5 µM [inhibitor, partial curve, poor fit]
Nc1ncnc2c1c(-c1cnc3[nH]ccc3c1)nn2C1CCCC1 | active: 2.95 µM
CN1CCN(Cc2ccc(NC(=O)Nc3ccc(Oc4cc(NC(=O)C5CC5)ncn4)cc3)cc2C(F)(F)F)CC1 | active: 0.59 µM
CNC(=O)c1ccc(Nc2ncc(C(F)(F)F)c(NCc3nccnc3N(C)S(C)(=O)=O)n2)cc1 | active: 2.95 µM
N#Cc1c(NC(=O)c2cccc3ccccc23)sc2c1CCCC2 | active: 0.296 µM
O=C(c1ccc(Nc2nccc(-c3cc4ccccc4s3)n2)cc1)N1CCC(N2CCCC2)CC1 | active: 7.42 µM
CC[C@]1(O)C[C@H]2CN(CCc3c([nH]c4ccccc34)[C@@](C(=O)OC)(c3cc4c(cc3OC)N(C=O)[C@H]3[C@@](O)(C(=O)OC)[C@H](OC(C)=O)[C@]5(CC)C=CCN6CC[C@]43[C@@H]65)C2)C1 | active: 0.263 µM
CCCCC(F)(F)[C@@]1(O)CC[C@H]2[C@H](CC(=O)[C@@H]2CCCCCCC(=O)O)O1 | inactive
COc1ccc2c(c1)c(C1=C(c3c[nH]c4ccccc34)C(=O)NC1=O)cn2CCCN(C)C | active: 23.5 µM
Cc1nc(-c2cn3c(n2)-c2ccc(-c4cnn(C(C)(C)C(N)=O)c4)cc2OCC3)n(C(C)C)n1 | inconclusive: 6.61 µM [inhibitor, partial curve]
C#CC[C@H](c1nc2cc(Cl)ccc2c(=O)n1Nc1ccccc1)N(CCCN)C(=O)c1cccc(Cl)c1F | active: 3.32 µM
CCN(CC)CCNC(=O)c1ccc2nc(-c3ccccc3)c(-c3ccc(CN4CCC(n5c(=O)[nH]c6ccccc65)CC4)cc3)nc2c1 | active: 9.34 µM

Assay: BET inhibitor-based combinations targeting novel dependencies in MECOM-rearranged (r) AML: AML-194 cell line (AID 2202237; note: nearly all actives have a fitted effect of over 40% in size)
Settings: AML-194 (MECOM-r AML) viability, CellTiter-Glo, 48 h; series mostly up to 46 µM
In short: as §1

SMILES | Potency
C=CC(=O)Nc1cc2c(Nc3ccc(F)c(Cl)c3)ncnc2cc1OCCCN1CCOCC1 | active: 11.8 µM
c1cc(-c2cnn3cc(-c4ccc(OCCN5CCCCC5)cc4)cnc23)ccn1 | active: 9.34 µM
COc1cc(C(=O)NC2CCN(C)CC2)ccc1Nc1ncc2c(n1)N(C1CCCC1)CCC(=O)N2C(C)C | active: 23.5 µM
COc1ccc2c(c1OC)C(=O)OC2[C@H]1c2c(cc3c(c2OC)OCO3)CCN1C (some centres not stated) | active: 20.9 µM
Cc1c(C(=O)N2CCOc3ccc(-c4ccc(N)nc4)cc3C2)ccc(S(C)(=O)=O)c1F | inconclusive: 0.934 µM [inhibitor, full curve]
CC(=O)c1cnc2ccc(-c3cc(Cl)c(O)c(Cl)c3)nc2c1NC1CCC(CN(C)C)CC1 (configuration not stated) | active: 0.0605 µM
COc1cc2ncn(-c3cc(OCc4ccccc4C(F)(F)F)c(C(N)=O)s3)c2cc1OC | active: 1.05 µM
CC(C)c1cnn2c(NCc3ccccc3)cc(N[C@@H](CO)[C@H](O)CO)nc12 | active: 0.372 µM
COc1ccc(CNc2nc(N(CCO)CCO)nc3c2ncn3C(C)C)cc1 | active: 5.9 µM
CNC(=O)c1ccc(Nc2ncc(C(F)(F)F)c(NCc3nccnc3N(C)S(C)(=O)=O)n2)cc1 | active: 3.72 µM
N#Cc1c(NC(=O)c2cccc3ccccc23)sc2c1CCCC2 | active: 0.332 µM
CC[C@]1(O)C[C@H]2CN(CCc3c([nH]c4ccccc34)[C@@](C(=O)OC)(c3cc4c(cc3OC)N(C=O)[C@H]3[C@@](O)(C(=O)OC)[C@H](OC(C)=O)[C@]5(CC)C=CCN6CC[C@]43[C@@H]65)C2)C1 | active: 0.296 µM
COc1cc([C@@H]2c3cc4c(cc3[C@H](O)[C@H]3COC(=O)[C@H]23)OCO4)cc(OC)c1OC | inconclusive: 0.0372 µM [inhibitor, full curve, poor fit]
O=[N+]([O-])c1ccc(-c2nc(-c3ccc(F)cc3)c(-c3ccncc3)[nH]2)cc1 | inactive
COc1ccc(S(=O)(=O)Nc2cc(-c3c(O)ccc4ccccc34)c(O)c3ccccc23)cc1 | active: 1.66 µM
Cc1nc(-c2cn3c(n2)-c2ccc(-c4cnn(C(C)(C)C(N)=O)c4)cc2OCC3)n(C(C)C)n1 | inconclusive: 6.61 µM [inhibitor, partial curve]
COc1cccc(Nc2ncnn3ccc(CN4CC[C@@H](N)[C@H](O)C4)c23)c1 | inconclusive: 8.33 µM [inhibitor, full curve]
CCNC(=O)C#Cc1ccc2c(C(=Nc3ccc(CN(C)C)cc3)c3ccccc3)c(O)[nH]c2c1 | active: 0.162 µM
